Where a name gives a salt, the structure may show the parent alone.
System: sephadex bead stimulated LTE4 production in whole human blood (eosinophil activation)
Assay type: cell-based
Settings: Homo sapiens, read-out: IC50 in ex-vivo LTE4 assay

| Structure (SMILES) | IC50 [nM] |
| --- | --- |
| COc1ccc(Cc2ccc(OC(N)=O)cc2)c(F)c1-c1cccc(Cl)c1 [P-221] | < 1000 |
| COc1ccc(Cc2cccc(OC(N)=O)c2)c(F)c1-c1cccc(Cl)c1 [P-222] | < 1000 |
| COC(=O)Nc1nnc(Cc2ccc(OC)c(-c3cccc(Cl)c3)c2F)s1 [P-342, Methyl[5-(3′-Chloro-2-fluoro-6-methoxy-biphenyl-3-ylmethyl)-[1,3,4]thiadiazol-2-yl]-carbamate] | < 1000 |

Same assay, conditions: heparinized human whole blood, Sephadex G-15 stimulation, LTE4 by enzyme-linked immunoassay, read-out: IC50 in ex-vivo LTE4 assay

| IC50 [nM] | Structure (SMILES) |
| --- | --- |
| < 1000 | COc1ccc(Cc2ccc(F)cc2)c(F)c1-c1cccc([N+](=O)[O-])c1 [P-050] |
| < 1000 | COc1ccc(Cc2ccnn2C)cc1-c1ccc2c(c1)OCO2 [P-075, 5-(3-Benzo[1,3]dioxol-5-yl-4-methoxy-benzyl)-1-methyl-1H-pyrazole] |
| < 1000 | COc1ccc(Cc2ccc(NC(C)=O)cc2)c(F)c1-c1cccc([N+](=O)[O-])c1 [P-107] |
| < 1000 | COc1ccc(Cc2ccc(N)cc2)cc1-c1cccc([N+](=O)[O-])c1 [P-113] |
| < 1000 | COc1ccc(Cc2ccc(N)cc2)c(F)c1-c1cccc([N+](=O)[O-])c1 [P-136] |
| < 1000 | COc1ccc(Cc2ccc(F)cc2)c(F)c1-c1cccc(Br)c1 [P-139] |
| < 1000 | COc1ccc(Cc2ccc(F)cc2)cc1-c1cccc(C(C)=O)c1 [P-140, 1-[5′-(4-Fluoro-benzyl)-2′-methoxy-biphenyl-3-yl]-ethanone] |
| < 1000 | COc1ccc(CN2C(=O)CC[C@@H]2CN)cc1-c1cccc([N+](=O)[O-])c1 [P-156, (R)-5-Aminomethyl-1-(6-methoxy-3′-nitro-biphenyl-3-ylmethyl)-pyrrolidin-2-one] |
| < 1000 | COc1ccc(Cc2ccc(F)cc2)c(C#N)c1-c1cccc([N+](=O)[O-])c1 [P-163, 3-(4-fluoro-benzyl)-6-methoxy-3′-nitro-biphenyl-2-carbonitrile] |
| < 1000 | COc1ccc(Cc2ccc(NC(C)=O)cc2)c(F)c1-c1cccc(Br)c1 [P-168] |
| < 1000 | COc1ccc(Cc2ccc(CNC(=O)CN(C)C)cc2)c(F)c1-c1cccc([N+](=O)[O-])c1 [P-175] |
| < 1000 | COc1ccc(Cc2ccc(NC(N)=O)cc2)c(F)c1-c1cccc([N+](=O)[O-])c1 [P-181] |
| < 1000 | COc1ccc(Cc2ccc(F)cc2)c(F)c1-c1cccc(Cl)c1 [P-187] |
| < 1000 | COc1ccc(Cc2ccc(NS(C)(=O)=O)cc2)c(F)c1-c1cccc(Br)c1 [P-200] |
| < 1000 | COc1ccc(Cc2ccc(NS(C)(=O)=O)cc2)c(F)c1-c1cccc(Cl)c1 [P-227] |
| < 1000 | COc1ccc(Cc2ccc(CNC(N)=O)cc2)c(F)c1-c1cccc([N+](=O)[O-])c1 [P-237] |
| < 1000 | COc1ccc(Cc2ccc3c(c2)OCO3)c(F)c1-c1cccc(Cl)c1 [P-242] |
| < 1000 | COc1ccc(Cc2ccc(NC(N)=O)cc2)c(F)c1-c1cccc(Cl)c1 [P-243, [4-(3′-chloro-2-fluoro-6-methoxy-biphenyl-3-ylmethyl)-phenyl]-urea] |

| IC50 [nM] | Structure (SMILES) |
| --- | --- |
| < 1000 | CCNC(=O)Nc1ccc(Cc2ccc(OC)c(-c3cccc(Cl)c3)c2F)cc1 [P-250] |
| < 1000 | COc1ccc(Cc2ccc(NC(N)=O)cc2)c(F)c1-c1cccc(C(C)=O)c1 [P-269, [4-(3′-Acetyl-2-fluoro-6-methoxy-biphenyl-3-ylmethyl)-phenyl]urea] |
| < 1000 | COc1ccc(Cc2ccc(CNC(N)=O)c(F)c2)c(F)c1-c1cccc(Cl)c1 [P-287] |
| < 1000 | CCNC(=O)Nc1ncc(Cc2ccc(OC)c(-c3cccc(C(C)=O)c3)c2F)cn1 [P-315, 1-[5-(3′-Acetyl-2-fluoro-6-methoxy-biphenyl-3-ylmethyl)-pyrimidin-2-yl]-3-ethyl-urea] |
| < 1000 | CCNc1ccc(Cc2ccc(OC)c(-c3cccc(Cl)c3)c2F)cn1 [P-318] |
| < 1000 | COc1ccc(Cc2cnc(N(C)C)nc2)c(F)c1-c1cccc(C(C)=O)c1 [P-325, 1-[3′-(2-Dimethylamino-pyrimidin-5-ylmethyl)-2′-fluoro-6′-methoxy-biphenyl-3-yl]-ethanone] |
| < 1000 | COc1ccc(Cc2ccc(C(N)=O)nc2)c(F)c1-c1cccc(C(C)=O)c1 [P-328, 5-(3′-Acetyl-2-fluoro-6-methoxy-biphenyl-3-ylmethyl)-pyridine-2-carboxylic acid amide] |
| < 1000 | COc1ccc(Cc2ccc(CNC(N)=O)c(F)c2)c(F)c1-c1cccc(C(C)=O)c1 [P-330] |
| < 1000 | COc1ccc(Cc2ccc(N(C)C)nc2)c(F)c1-c1cccc(C(C)=O)c1 [P-332, 1-[3′-(6-Dimethylamino-pyridin-3-ylmethyl)-2′-fluoro-6′-methoxy-biphenyl-3-yl]-ethanone] |
| < 1000 | CNc1ccc(Cc2ccc(OC)c(-c3cccc(C(C)=O)c3)c2F)cn1 [P-336] |
| < 1000 | COc1ccc(Cc2ccc(N(C)C(N)=O)cc2)c(F)c1-c1cccc(C(C)=O)c1 [P-338, 1-[4-(3′-Acetyl-2-fluoro-6-methoxy-biphenyl-3-ylmethyl)-phenyl]-1-methyl-urea] |
| < 1000 | CCNc1ccc(Cc2ccc(OC)c(-c3cccc(C(C)=O)c3)c2F)cn1 [P-339] |
| < 1000 | CCNC(=O)Nc1ccc(Cc2ccc(OC)c(-c3cccc(Cl)c3)c2F)cn1 [P-356] |
| < 1000 | COc1ccc(Cc2ccc(NC(N)=O)cc2)cc1-c1cccc(Cl)c1 [P-378, [4-(3′-chloro-6-methoxy-biphenyl-3-ylmethyl)-phenyl]-urea] |
| < 1000 | CCNC(=O)Nc1ccc(Cc2ccc(OC)c(-c3cccc(C#N)c3)c2F)cn1 [P-405, 1-[5-(3′-Cyano-2-fluoro-6-methoxy-biphenyl-3-ylmethyl)-pyridin-2-yl]-3-ethyl-urea hydrochloride salt] |
| < 1000 | COc1ccc(Cc2ccc(C(N)=O)nc2)c(F)c1-c1cccc(C#N)c1 [P-415, 5-(3′-Cyano-2-fluoro-6-methoxy-biphenyl-3-ylmethyl)-pyridine-2-carboxylic acid amide] |
| < 1000 | NC(=O)Nc1ccc(Cc2ccc(OC(F)F)c(-c3cccc(Cl)c3)c2)cc1 [P-420] |
| < 1000 | COc1ccc(Oc2ccc(N)nc2)c(F)c1-c1cccc(C#N)c1 [P-439, 5-(3′-Cyano-2-fluoro-6-methoxy-biphenyl-3-yloxy)-pyridin-2-yl-ammonium chloride] |
